The campaign covered roughly 360,000 compounds. About 17,000 (4.7%) were called active. Inconclusive means that the source gave no clear call. Such entries were picked first, then a sample of the others. No stated cut-off is given here; in the data, active means activity change below about -50%; inconclusive means mostly about -30% to -49%; inactive means weaker than that.
Assay: qHTS for Inhibitors of Inflammasome Signaling: IL-1-beta AlphaLISA Primary Screen
Conditions: THP-1 LPS/ATP IL-1B secretion, 16 h; at 57.5 µM, stronger effect = lower value
Summary of the method: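 THP-1 cells pretreated 1 hr with compounds (up to 57.5 uM final), then stimulated with LPS (250 ng/mL final) plus ATP (1.25 mM final); secreted IL-1B measured by AlphaLISA after 16 hr, decreased signal indicating inhibition.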
On the % scale 0 is the no-effect control and ±100 the full control effect.

Structure (SMILES) | activity change
CC(=C\c1ccco1)/C=C(\C#N)C(=O)NCCc1c[nH]c2ccccc12 | inconclusive: -39.1%
CC(C)(C)OC(=O)N1CCC(c2c(C(=O)NCC3CCN(C4CCCC4)C3)cnn2-c2ccc(F)cc2)CC1 (configuration not stated) | inconclusive: -32%
COc1ccc(OC2C(=O)N(CCc3ccc(OC)c(OC)c3)C2c2ccc3c(c2)OCO3)cc1 (configuration not stated) | inconclusive: -35.7%
CN1CCN(CCCCOc2cccc3ccccc23)CC1 | inconclusive: -36%
COc1ccc(-c2oc3ncnc(NCCCO)c3c2-c2ccc(OC)cc2)cc1 | active: -68.8%
N#C/C(=N\O)c1nc(-c2ccccc2)cs1 | inconclusive: -32.2%
CCOC(=O)N1CCN(C(=O)Cc2ccc(-n3c(=O)[nH]c4ccccc4c3=O)cc2)CC1 | inactive: -1.36%
CN(CC(=O)Nc1ccc(Cl)c(Cl)c1)C(=O)CNC(=O)Cc1ccccc1 | inconclusive: -39.7%
CC1(C)Cc2c(C#N)c(N3CCN(C(=O)c4ccco4)CC3)nc(Cc3ccccc3)c2CO1 | inconclusive: -49.8%
CN(C)c1ccc(N=Cc2nc(-c3ccccc3)oc2OC(=O)c2cccc(Br)c2)cc1 | inconclusive: -45%
c1ccc(CCc2nn3c(Cn4nnc5ccccc54)nnc3s2)cc1 | inconclusive: -30.9%
Cc1ccc(NC(=O)COC(=O)CN2C(=O)C3CCCCC3C2=O)cc1S(=O)(=O)N1CCOCC1 (configuration not stated) | inconclusive: -34.9%
CC1CCCN(C(=O)Cc2cn(Cc3cccc(Cl)c3)c3ccccc23)C1 (configuration not stated) | active: -75.7%
CCOC(=O)C1CCN(C(=O)c2ccc(Cl)c(Cl)c2)CC1 | inactive: 12.3%
Cc1ccc(C(C#N)c2ccc3c(C(F)(F)F)cc(C(F)(F)F)nc3n2)cc1 (configuration not stated) | inconclusive: -43.4%
Nc1nc(SCc2ccccc2Cl)[nH]c(=O)c1-c1ccccc1 | inconclusive: -44.9%
CN(CC(=O)Nc1cccc(F)c1)C(=O)c1cccc(S(=O)(=O)N2CCN(c3ccccc3)CC2)c1 | inconclusive: -31.3%
CCN(CC)c1ncnc2c1cnn2Cc1ccc(Cl)cc1 | inconclusive: -40.8%
CC(C)CN(C(=O)COC(=O)c1cccnc1Cl)c1c(N)n(Cc2ccccc2)c(=O)[nH]c1=O | inconclusive: -31.4%
COc1ccc(C2CC(c3ccccc3Cl)=NN2c2ccc(S(N)(=O)=O)cc2)cc1 (configuration not stated) | inconclusive: -47.9%
N#Cc1nc(Cc2cccc3ccccc23)oc1NCc1ccc2c(c1)OCO2 | active: -53.4%
COc1ccc(CCNC(=O)c2ccc(-c3ccc([N+](=O)[O-])cc3Cl)o2)cc1 | inconclusive: -38.1%

— PubChem BioAssay AID743279 (National Center for Advancing Translational Sciences (NCATS), 2014)
